PubChem BioAssay AID488969 (Vanderbilt High Throughput Screening Facility, 2010)
Over roughly 110,000 compounds, “z-score” has its median near -0.1; the highest 2% begin near 2. The list shows a part of the results. The source made the active and inactive calls.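 How the source made its calls: active means z-score in the third read window above 3 or below -3; inactive means the rest.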

Each compound was assayed against Metabotropic glutamate receptor 8 (Rattus norvegicus) (UniProt P70579) (assay: mGluR8 Gi/Go-coupled signaling modulation – cell-based, rat, thallium flux, HTS, primary screen (AID 488969)). Settings: HEK293 rat mGluR8, GIRK (G protein-gated inwardly rectifying potassium channel) thallium flux, FluoZin2; at 10 µM; stronger effect = higher value; submaximal glutamate (EC20) added with thallium.
Sequence of UniProt P70579 (P70579 whole entry, looked up): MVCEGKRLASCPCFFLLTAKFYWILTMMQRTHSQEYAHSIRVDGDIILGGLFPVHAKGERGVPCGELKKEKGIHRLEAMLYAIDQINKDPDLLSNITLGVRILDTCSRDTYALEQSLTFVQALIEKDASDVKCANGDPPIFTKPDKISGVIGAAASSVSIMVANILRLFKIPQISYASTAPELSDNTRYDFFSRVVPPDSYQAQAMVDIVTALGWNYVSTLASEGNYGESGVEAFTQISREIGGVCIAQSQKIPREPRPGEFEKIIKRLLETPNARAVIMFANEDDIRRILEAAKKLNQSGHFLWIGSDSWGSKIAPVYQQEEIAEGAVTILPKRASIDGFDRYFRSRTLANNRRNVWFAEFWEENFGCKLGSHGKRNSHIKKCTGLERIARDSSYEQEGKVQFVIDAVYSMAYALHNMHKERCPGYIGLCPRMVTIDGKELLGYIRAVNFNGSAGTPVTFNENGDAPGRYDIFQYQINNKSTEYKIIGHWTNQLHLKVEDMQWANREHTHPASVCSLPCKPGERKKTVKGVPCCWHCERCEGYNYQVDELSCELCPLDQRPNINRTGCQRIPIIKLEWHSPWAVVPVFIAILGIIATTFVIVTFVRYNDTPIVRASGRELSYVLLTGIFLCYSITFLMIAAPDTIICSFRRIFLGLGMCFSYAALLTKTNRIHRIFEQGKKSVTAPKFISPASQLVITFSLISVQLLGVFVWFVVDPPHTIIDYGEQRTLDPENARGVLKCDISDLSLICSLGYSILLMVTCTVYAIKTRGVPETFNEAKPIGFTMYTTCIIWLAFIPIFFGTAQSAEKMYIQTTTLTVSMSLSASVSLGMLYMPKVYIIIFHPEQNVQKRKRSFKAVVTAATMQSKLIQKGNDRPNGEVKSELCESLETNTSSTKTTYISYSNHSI
With `COC(=O)c1[nH]c2ccc(C)cc2c1NC(=O)CCN1CCN(Cc2ccc3c(c2)OCO3)CC1` the z-score was active: 9.23. `O=C(N/N=C/c1ccco1)c1cc([N+](=O)[O-])cc([N+](=O)[O-])c1` was tested, and the z-score was 0.778. Compound `CC(=O)NC(CCS(C)(=O)=O)C(=O)Nc1ccccc1C` (stereo unspecified) has a z-score of 0.309. Work on `O=C(CSc1nnc(CNC(=O)c2ccco2)o1)NC1CCCC1` yielded a z-score of 0.658. With `COc1ccc(NC(=O)C2CSC3c4ccccc4C(=O)N23)cc1` (stereo unspecified) the z-score was 0.3. Compound `Cc1cccc(N2CCN(C(=O)c3cc4c(=O)[nH]c5ccccc5c4n3C)CC2)c1C` has a z-score of -0.261. In the case of `COCCCNC(=O)c1cccn2c(=O)c3cc4ccccc4cc3nc12`, the z-score is reported as -0.323. `CCn1nccc1C(=O)NC1=C(C#N)CCC1` was tested, and the z-score was 1.07. Compound `Cc1cc(S(=O)(=O)N2CCCCCC2)c(Cl)cc1Cl` has a z-score of -0.00904. `COc1ccc(CC(=O)Nc2ccc(S(=O)(=O)N(C)C)cc2)cc1OC` gave a z-score of -0.142. `Cc1c(NC(=O)CSc2nccn2C)c(=O)n(-c2ccccc2)n1C` showed a z-score of -0.0895. `O=C(NCC(c1cccs1)N1CCOCC1)c1ccc(Br)o1` (stereo unspecified) showed a z-score of 0.127. Compound `O=C(c1cc2n(n1)C(C(F)(F)F)CC(c1ccc(Cl)cc1)N2)N1CCCC1` (stereo unspecified) has a z-score of 0.223. For `Cn1c(SCC(=O)N/N=C/C=C/c2ccccc2[N+](=O)[O-])nc2ccccc21`, the z-score was -0.165. Compound `CCOC(=O)c1c(NC(=O)Cn2nc(C(F)F)cc2C(F)F)sc(C)c1C` has a z-score of -0.217. `CC1(C)NC(=O)N(CNc2cc(Cl)ccc2Cl)C1=O` showed a z-score of 0.105. Work on `O=C(c1ccc(COc2ccc(Br)cc2)o1)N1N=C(C(F)F)CC1(O)C(F)F` (stereo unspecified) yielded a z-score of -0.363. Work on `Cc1cc(/C=C(/C#N)c2nc3ccccc3[nH]2)c(C)n1-c1cccc([N+](=O)[O-])c1` yielded a z-score of -0.533. For `CCOCN(C(=O)Cn1c(COC)nc2ccccc21)c1c(C)cccc1CC`, the z-score was -0.0539. `CCc1c(C)n([O-])c2c([n+]1=O)CCCCC2` gave a z-score of -0.0701. `O=C1C2=C(c3ccccc31)[N+](=O)C1CCCCC1N2[O-]` (stereo unspecified) was tested, and the z-score was -0.178. `CNC(=S)N(Cc1ccc(OC)cc1)C1CC(=O)N(c2ccc(Cl)cc2)C1=O` (stereo unspecified) showed a z-score of 0.0914. In the case of `CC(=O)c1cc(CC=C(C)C)c(O)c(CC=C(C)C)c1O`, the z-score is reported as -0.162. `COc1ccc(CCNC(=O)CSc2nnnn2Cc2ccc3c(c2)OCO3)cc1OC` was tested, and the z-score was 0.0891. In the case of `CCOC(=O)/C=C1\CC(=O)Nc2nonc2N1`, the z-score is reported as 0.969. `CCCCC(=O)Nc1ccc(N2CCCC2)cc1` showed a z-score of -0.0323. `O=C(/C=C\Nc1ccccn1)c1ccc(Cl)cc1` was tested, and the z-score was -0.145. Compound `O=C(N/N=C/c1cccc(O)c1)c1ccc(COc2ccccc2Br)cc1` has a z-score of -0.253. With `COc1ccc(OC)c(NC(=O)CC(NCCC2=CCCCC2)C(=O)O)c1` (stereo unspecified) the z-score was -0.206. `COc1ccnc(CSC(N)=Nc2ccc(F)cc2)c1` gave a z-score of 0.221. Work on `COc1ccc(-n2c(=O)cc(N3CCN(c4ccccc4)CC3)[nH]c2=O)cc1` yielded a z-score of 1.04. `Cc1onc(-c2ccccc2Cl)c1C(=O)Nc1ccc(S(=O)(=O)NCC2CCCO2)cc1` (stereo unspecified) was tested, and the z-score was 0.212. In the case of `CC(C)(C)c1cc(CN2CCCCC2)cc(C(C)(C)C)c1O`, the z-score is reported as 0.603. `CCN(CC)CCn1c(=S)[nH]c2cc(Cl)ccc2c1=O` gave a z-score of 1.41. Work on `O=c1[nH]c2ccc(Cl)cc2c(-c2ccccc2)c1SC(=S)N1CCOCC1` yielded a z-score of 0.192. For `Nc1nnc(SCC(=O)OCc2ccc(F)cc2)s1`, the z-score was -0.473. `CCCc1cc(=O)n2[nH]c(NCc3c(F)cccc3Cl)nc2n1` gave a z-score of -2.49. `Cc1ccc(N=CC=C2OC(C)(C)C(C)(C)O2)cc1` showed a z-score of 0.77. In the case of `Cc1nnc(N2CCc3ccccc3C2)[nH]c1=O`, the z-score is reported as 0.569. `CCC(C)c1ccccc1NC(=O)COC(=O)c1ccc2c(c1)S(=O)(=O)c1ccccc1C2=O` (stereo unspecified) gave a z-score of 2.17. `O=C(CSc1nc2ccccc2s1)N1CCOCC1` was tested, and the z-score was 0.742. With `O=C(Cc1ccccc1)Nc1ccc(-c2nnc(-c3ccco3)o2)cc1` the z-score was -0.0131. Work on `CCn1c(=O)cc(OCC(=O)NC(C)c2ccc3c(c2)OCCO3)c2ccccc21` (stereo unspecified) yielded a z-score of 0.0843. In the case of `O=C(NC1CCCCCC1)C1CCCN(S(=O)(=O)c2cccs2)C1` (stereo unspecified), the z-score is reported as -0.353. Work on `Cc1ccc(NS(=O)(=O)c2cc(C(=O)N3CCOCC3)ccc2C)cc1C` yielded a z-score of 0.258. `O=C(c1ccc2ccccc2c1)N1CCN(c2ccccc2)CC1` showed a z-score of -0.394. For `COC(=O)CSc1nnc(-c2ccncc2)o1`, the z-score was -0.262. `N#Cc1nc(-c2cccc3ccccc23)oc1NCCN1CCCCC1` was tested, and the z-score was -0.288. With `Cc1ccc(C)c(-n2[nH]c3c4c(ccc3c2=O)C(=O)c2ccccc2C4=O)c1` the z-score was 0.0628. `COc1ccccc1NS(=O)(=O)c1cc(C(=O)NCc2ccco2)ccc1C` gave a z-score of -0.161. Work on `O=C(NCC1(N2CCOCC2)CCCCC1)c1ccc(Cl)c(S(=O)(=O)NCc2ccco2)c1` yielded a z-score of -0.0635. Work on `CC(=O)Cc1ccccc1OCC(=O)O` yielded a z-score of -0.248. In the case of `O=C(CN1C(=O)NC2(CCCC2)C1=O)NCCC1=CCCCC1`, the z-score is reported as -0.11. In the case of `O=C1CSC(c2cn(-c3ccccc3)nc2-c2ccccc2)N1Cc1ccco1` (stereo unspecified), the z-score is reported as -0.12. With `CC12CS(=O)(=O)CC1SC(=S)N2c1ccccn1` (stereo unspecified) the z-score was 0.0183. `CCOC(=O)C(NC(=O)c1ccccc1)(OCc1ccccc1)C(F)(F)F` (stereo unspecified) was tested, and the z-score was 0.0862.
